According to PubChem BioAssay AID686971 (National Center for Advancing Translational Sciences (NCATS), 2013):
Screen size: about 360,000 compounds; about 7,500 (2.1%) were called active. The shares of active, inactive and inconclusive entries below differ from those in the screen. The call rests on the fitted dose curve; in most records, active means well fitted cell-killing curve with a large enough effect; inconclusive means small, poorly fitted or top-dose-only effect, or effect the other way, or another doubt; inactive means no such curve, though single readings can be large or run the other way. No potency is given beside an inconclusive call; the fits are too rough.

experiment: qHTS for induction of synthetic lethality in tumor cells producing 2HG: qHTS for the HT-1080-IDH1KD cell line; conditions: HT-1080 IDH1 knockdown viability, ATP luminescence, 48 h; activity, negative = toxicity: at 46.1 µM (top of the series) unless noted;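 on activity, negative = toxicity: 0% = DMSO wells and -100% = cell-free medium wells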
Procedure, shortened: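 Using the IDH1-knockdown HT-1080 line run in the same batch and compound series as the NT line, viability after 48 h at 37 °C was determined by CellTiter-Glo luminescence and expressed as % activity.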
Potency means the concentration at half of the fitted maximal effect; tags describe the fitted curve by direction and shape.

| Structure (SMILES) | Potency | activity, negative = toxicity |
| --- | --- | --- |
| C=CCN(C(=O)CNC(=O)c1cccs1)C(C(=O)NC1CCCCC1)c1cccnc1 (stereo not given) | inactive | – |
| CC1=CC(C)(C)N(S(=O)(=O)c2ccc(F)cc2)c2ccc(C)cc21 | inconclusive [cytotoxic, single point] | – |
| C=CCOC(=O)N1CCC2CC1c1c(-c3ccc(C(F)(F)F)cc3)cccc12 (stereo not given) | inconclusive [cytotoxic, single point] | – |
| CC(=O)Oc1ccc(Nc2ccccc2)cc1 | inconclusive [cytotoxic, single point] | – |
| O=C(N/N=C/c1ccccc1O)c1ccc2c(c1)OCO2 | inconclusive [cytotoxic, partial curve] | – |
| CC(C)n1c(SCc2ccc(Cl)cc2)nc2c1c(=O)[nH]c(=O)n2C | inconclusive [cytotoxic, single point] | – |
| COc1ccc(C(OCC(O)CN(C)C2CCCCC2)c2ccc(OC)cc2)cc1 (stereo not given) | inconclusive [cytotoxic, partial curve] | – |
| Cn1ccsc1=NC(=O)c1ccc(OC(F)(F)F)cc1 | inconclusive [cytotoxic, partial curve] | – |
| Cc1ccc2nc(SCC(=O)Nc3cc(C(F)(F)F)ccc3N3CCOCC3)[nH]c2c1 | active: 1.03 µM | – |
| CCOc1ccc(NC(=O)C(=O)N/N=C\c2ccc(CNS(=O)(=O)c3ccccc3)o2)cc1 | inconclusive [cytotoxic, full curve, poor fit] | – |
| COc1ccc(NC(=O)CCOc2ccc(C)cc2)cc1S(=O)(=O)N1CCCCC1 | inactive | – |
| CCN(CC)CCCNC(=O)C1c2ccccc2C(=O)N(C)C1c1ccc(OC)cc1 (stereo not given) | – | inconclusive: -33.6% [cytotoxic] |
| C=C1CC(COc2cc(=O)oc3ccccc23)(c2ccccc2)OC1=O (stereo not given) | active: 5.17 µM | – |
| COCCCNC(=O)/C(C#N)=C/c1cccc(NC(=O)c2ccccc2Cl)c1 | active: 14.6 µM | – |
| Cc1ccc(C(C)C)c(OCCCN(C)Cc2ccccc2)c1 | inconclusive [cytotoxic, single point] | – |
| CC(=O)NCCn1c(SCc2cc(F)ccc2F)nc2ccccc2c1=O | inconclusive [cytotoxic, single point] | – |
| OCc1cccc(-c2csc(C(O)(c3ccccc3)C(F)(F)F)n2)c1 (stereo not given) | inconclusive [cytotoxic, single point] | – |
| COc1ccc(/C=C/c2nc3ccccc3n2Cc2ccccc2OC)cc1 | active: 16.4 µM | – |
| CCCC(=O)Nc1ccc2c(c1)nc1n2CCSC1 | inactive | – |
| CCC(NC(=O)CN1CCN(C(=O)c2cccs2)CC1)c1ccc(C)cc1 (stereo not given) | inactive | – |
| COc1ccc(Nc2nc(NCc3ccco3)nc(N)c2[N+](=O)[O-])cc1 | inactive | – |
| Clc1ccc2nc(-c3ccc4c(c3)OCO4)cn2c1 | active: 20.6 µM | – |
| COC(=O)CSC1=C(C#N)C(c2ccc(C)o2)CC(=O)N1 (stereo not given) | active: 7.31 µM | – |

| Structure (SMILES) | Potency | activity, negative = toxicity |
| --- | --- | --- |
| CCOC(=O)c1ccc2c(c1)n(CC)c(/C=C/N(C)c1ccccc1)[n+]2CC | inconclusive [cytotoxic, partial curve, poor fit] | – |
| CC1(C)Oc2ccc3ccc(=O)oc3c2/C(=C/NC2CCCCC2)C1=O | inconclusive [cytotoxic, single point] | – |
| O=C(N/N=C/c1ccccc1OCc1ccccc1)c1cccnc1 | inactive | – |
| C[C@H](CO)N1C[C@H](C)[C@H](CN(C)Cc2ccccc2)Oc2ccc(NC(=O)Nc3ccc(F)cc3)cc2C1=O | inconclusive [cytotoxic, single point] | – |
| CC(=O)Oc1ccccc1Cn1c(C)c(C(=O)NCc2cccc(Cl)c2)sc1=O | inconclusive [cytotoxic, single point] | – |
| COC(=O)[C@@]1(Cc2ccc(F)cc2)[C@H]2C(CC(=O)C(=O)N3CCCC3)C(=O)C[C@H]2CN1C(=O)c1ccccc1 (stereo not given in full) | inconclusive [cytotoxic, single point] | – |
| O=C1Nc2ccccc2N(C(=O)c2ccc3ccccc3c2)C1c1nc2ccccc2[nH]1 (stereo not given) | inconclusive [cytotoxic, single point] | – |
| CCC(=O)NNc1ccc(Br)cc1 | active: 4.11 µM | – |
| COc1ccc(CCNC(=S)NCCc2ccc(OC)c(OC)c2)cc1OC | inactive | – |
| COC(=O)[C@]12CCCCC=C1N(Cc1ccco1)C(=O)[C@H](CC(=O)NCC13CC4CC(CC(C4)C1)C3)C2 | inconclusive [cytotoxic, single point] | – |
| COc1cc2c(cc1NC(=O)CN1C(=O)NC3(CCc4ccccc43)C1=O)oc1ccccc12 (stereo not given) | active: 14.6 µM | – |
| O=C(c1ccc(CS(=O)(=O)c2c(Cl)cccc2Cl)o1)N1CCCC1 | inactive | – |
| COc1ccc(C2=Nc3ccccc3N(C(=O)c3ccc4c(c3)OCO4)C2C(=O)NCc2ccccc2)cc1 (stereo not given) | inconclusive [cytotoxic, partial curve] | – |
| Cc1c(C(=O)NCc2cccs2)sc(=O)n1Cc1ccc(S(C)(=O)=O)cc1 | inactive | – |
| CCOC(=O)c1ccc(NC(=O)c2nc(S(=O)(=O)Cc3ccccc3)ncc2Cl)cc1 | active: 2.91 µM | – |
| CCOC(=O)Cc1csc(NC(=O)CCS(=O)(=O)Cc2ccccc2)n1 | active: 10 µM | – |
| Cc1ccc(S(=O)(=O)N2C[C@H]3C(=O)C[C@@H]4C(=O)N(c5ccccc5)C(=O)[C@@H]4[C@@H]3C[C@H]2c2cccc(Cl)c2)cc1 | inactive | – |
| O=C(N/N=C/c1ccc(Cl)cc1Cl)c1cccc(F)c1 | inconclusive [cytotoxic, single point] | – |
| COc1ccc(CCNC(=O)CN2CCN(c3ccccc3Cl)CC2)cc1 | inconclusive [cytotoxic, single point] | – |
| Cc1cccc(-n2c(-c3csc(C)c3)n[nH]c2=S)c1 | inconclusive [cytotoxic, partial curve, poor fit] | – |
| Oc1ccc(-n2nnnc2SCc2ccccc2Br)cc1 | inconclusive [cytotoxic, single point] | – |
| CCOc1ccc(NC2=C(Cl)C(=O)N(Cc3ccccc3)C2=O)cc1 | inconclusive [cytotoxic, single point] | – |
